Results as given in PubChem BioAssay AID493208 (National Center for Advancing Translational Sciences (NCATS), 2011).
Out of some 44,000 compounds screened, about 340 (0.77%) were called active. Not shown: some 5% with an inconclusive outcome. The call rests on the fitted dose curve; in most records, active means well fitted inhibition curve with a large enough effect; inconclusive means small, poorly fitted or top-dose-only effect; inactive means flat fitted curve, though single readings scatter. This is one part of the list.

Experiment: Acumen qHTS Assay for Inhibitors of the mTORC1 Signaling Pathway in MEF (Tsc2-/-, p53-/-) Cells: Sytravon;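 further: plate controls were DMSO for no effect and rapamycin for full effect; nearly all actives have a fitted effect of over 50% in size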
Conditions: phospho-rpS6 immunofluorescence/PI, 24 h; series mostly up to 38.3 µM; activity change, negative = inhibition: at the top concentration
In short: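 Compounds act on Tsc2-/-, p53-/- fibroblasts carrying an empty vector for 24 h before fixation and dual staining for phospho-S6 and DNA (propidium iodide). Values are percentages of cells above a rapamycin-defined pS6/PI threshold.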

| SMILES | activity change, negative = inhibition |
| --- | --- |
| COc1cc(C(=O)NCC(c2cccnc2)N2CCN(c3ccc(F)cc3)CC2)cc(OC)c1OC (stereo not given) | inactive: 2.77% |
| Cc1nn(-c2ccc3nncn3n2)c(C)c1CCC(=O)Nc1ccc(OC(F)(F)F)cc1 | inactive: -0.758% |
| COc1cc(NC(=O)c2noc3c2CCc2ccccc2-3)cc(OC)c1OC | inactive: -24.2% |
| Cc1ccccc1CNC(=O)c1ccc(-n2c(C)cc3c2CCCC3)cc1 | inactive: -16.7% |
| COc1ccccc1CNC(=O)C1CCN(Cc2nc(-c3ccc(OC)c(OC)c3)oc2C)CC1 | inactive: -14.7% |
| Cc1ccc(OCCn2c(-c3ccc(Cl)cc3)nc3ccccc3c2=O)c(C)c1 | inactive: 3.83% |
| CCCN(CCC)C(=O)Cn1c(=O)n(Cc2ccc(C(=O)NCCc3ccc(OC)c(OC)c3)cc2)c(=O)c2ccccc21 | inactive: -11.3% |
| CCCN(C(=O)c1cc2c(Cl)nc3ccccc3c2s1)c1cccc(C)c1 | inactive: -0.897% |
| COCCNC(=O)c1ccc(Cn2c(SCC(=O)NC(C)C)nc3ccccc3c2=O)cc1 | inactive: -13.4% |
| CCOc1cc(CNc2ccc(O)cc2)cc(Br)c1OCc1ccccc1 | inactive: -7.82% |
| CCOc1ccccc1N(C)C(=O)c1nn(-c2ccc(C)cc2)c(=O)c2c1c1ccccc1n2C | inactive: -4.79% |
| COc1ccc(CNC(=O)c2ccc3c(c2)N(Cc2ccccc2)C(=O)c2ccccc2S3(=O)=O)cc1 | inactive: -0.949% |
| COc1ccc(-c2cc3nc(C4CCN(C(=O)OC(C)(C)C)CC4)c(C(=O)Nc4cc(Cl)cc(Cl)c4)cn3n2)cc1 | inactive: 5.27% |
| COc1ccc(-n2c(SCC(=O)N3CCC(C)CC3)nc3c([nH]c4ccccc43)c2=O)cc1 | inactive: -2.66% |
| CC1=C(C(=O)Nc2ccc(C)cc2C)C(c2sccc2C)n2ncnc2N1 (stereo not given) | inactive: -1.45% |
| COc1ccc(OC)c(NC(=O)c2csnn2)c1 | inactive: -2.06% |
| COCCCNC(=O)c1cc(-c2cccnc2)nc2ccccc12 | inactive: 0% |
| CCOc1ccccc1-c1nnc(SCc2ccc(Cl)cc2)o1 | inactive: -4.84% |
| CCOc1cccc(C2c3c(oc4ccccc4c3=O)C(=O)N2c2nc(C)c(C(=O)OC)s2)c1 (stereo not given) | inactive: 5.4% |
| O=C(Nc1nnc(S(=O)(=O)N2CCCc3ccccc32)s1)c1ccccc1Br | inactive: -0.543% |
| Cc1ccc2occ(CC(=O)Nc3nnc(C(C)C)s3)c2c1 | inactive: -2.16% |
| Cc1ccc(-n2ncc(C(=O)Nc3ccc(C)c(F)c3)c2C2CCN(C(=O)OC(C)(C)C)CC2)cc1C | inactive: 2.52% |
| CCOc1cc(C2c3c(oc4ccccc4c3=O)C(=O)N2Cc2ccc3c(c2)OCO3)ccc1O (stereo not given) | inactive: -5.28% |
| Cc1nc2sc(C(=O)NCc3ccc(Cl)cc3)c(NC(=O)c3ccccc3)c2c(C)c1C | inactive: -7.67% |

| SMILES | activity change, negative = inhibition |
| --- | --- |
| Cc1ccc(CNC(=O)CCCCn2c(=O)c3ccccc3n(Cc3ccc(Cl)cc3)c2=O)cc1 | inactive: -2.26% |
| CCC(C(=O)OCc1cc(=O)n2nc(CCOC)sc2n1)c1ccccc1 (stereo not given) | inactive: -9.48% |
| Cc1ccccc1NC(=O)c1nc(-c2ccncc2)no1 | inactive: 4.86% |
| COc1cccc(N2CCN(c3nc4ccc(C(=O)c5ccccc5)cc4n4c(C)nnc34)CC2)c1 | inactive: -6.56% |
| Cc1ccc(NC(=O)Cn2c(CCC(=O)O)ccc2-c2cccs2)cc1 | inactive: -0.655% |
| COC(=O)C(C)Sc1nc2c([nH]c3ccccc32)c(=O)n1-c1ccc(OC)cc1 (stereo not given) | inactive: 0.169% |
| Cc1ccc(NC(=O)NCc2cccn2Cc2ccccc2)cc1F | inactive: -22.9% |
| Cc1cc(C)c2c(=O)cc(C(=O)Nc3ccc(S(=O)(=O)Nc4nc(C)cc(C)n4)cc3)oc2c1 | inactive: 2.33% |
| O=C(Nc1ccc2nc(SCC(=O)N3CCCC3)sc2c1)c1ccc(F)cc1 | inactive: -6.38% |
| COc1ccc(CNC(=O)CCCn2c(SCC(N)=O)nc3cc4c(cc3c2=O)OCO4)cc1 | inactive: -0.25% |
| Cc1cc(Nc2cccc(Cl)c2C)n2nc(Cc3ccccc3)nc2n1 | inactive: -20.1% |
| CCOc1ccccc1NC(=O)Cn1c(=O)n(Cc2ccccc2)c(=O)c2c(C)c(C(=O)N(C)C)sc21 | inactive: -0.321% |
| CCN(CC)C(=O)CSc1nc2cc3c(cc2c(=O)n1Cc1ccc(C(=O)NCCc2ccc(OC)c(OC)c2)cc1)OCO3 | inactive: 3.28% |
| COc1cc(Cl)c(C)cc1NC(=O)c1cn(CC(C)C)c(=O)c2cc(OC)c(OC)cc12 | inactive: -4.9% |
| CC(C)OCCCNC(=O)CCCn1c(SCC(=O)c2ccc(Br)cc2)nc2c(sc3ccccc32)c1=O | inactive: 1.46% |
| CC(NC(=O)c1ccccc1)c1nc2ccccc2n1Cc1ccc(Cl)cc1 (stereo not given) | inactive: -7.88% |
| COc1ccc(CNC(=O)c2cnn3c(C)c(Cc4ccc(F)cc4)c(C)nc23)cc1 | inactive: 5.67% |
| Cc1cc(C)c(NC(=O)Cn2c(=O)n(CCCCC(=O)NCc3ccccc3Cl)c(=O)c3ccccc32)c(C)c1 | inactive: 1.66% |
| COc1cc(CN(CC2CCCO2)C(=O)c2ccccc2F)cc(OC)c1OC (stereo not given) | inactive: -1.46% |
| Cc1ccc(Cl)cc1NC(=O)Cn1nc2c(cc1=O)CC(C)CC2 (stereo not given) | inactive: 0.141% |
| CCOc1ccc(NC(=O)CN2C(=O)COc3ccc(S(=O)(=O)Nc4ccccc4)cc32)cc1 | inactive: 0% |
| Cc1ccc(OCCSc2nc3ccccc3n2CC(=O)N2CCOCC2)c(C)c1 | inactive: 1.93% |
| COc1ccc(C(=O)Nc2ccc3nc4n(c(=O)c3c2)CCCCC4)cc1OC | inactive: 2.36% |
| CCC(=O)N1CCc2cc(Br)cc(S(=O)(=O)N3CCC(C(=O)NC(C)(C)C)CC3)c21 | inactive: -0.636% |

| SMILES | activity change, negative = inhibition |
| --- | --- |
| O=C(NNc1ncnc2c1cnn2-c1ccccc1)c1cccc(Cl)c1 | inactive: -8.88% |
| CC(C)Cn1c(=O)c2ccccc2n2c(-c3cccc(Cl)c3)nnc12 | inactive: -3.86% |
| COc1ccc(C(=O)NCc2nnnn2-c2ccc(C)c(C)c2)cc1 | inactive: 6.04% |
| COc1ccc(Cl)c(Cn2c(NCCN)nc3c2c(=O)n(C)c(=O)n3C)c1 | inactive: 0.485% |
| CCOc1ccc(NC(=O)N2CCOc3ccccc32)cc1 | inactive: -4.35% |
| N#Cc1ccc(-c2cccs2)nc1SCc1ccc(Cl)cc1Cl | inactive: -2.27% |
| CCc1ccccc1NC(=O)CSc1nnc(-c2nonc2NC(C)=O)n1C | inactive: -9.28% |
| Cc1ccc(Cl)cc1Nc1nc2ccccc2n2c(C)nnc12 | inactive: 0.236% |
| CCCOc1ccccc1Cn1c(=O)sc2ccccc21 | inactive: -18.5% |
| CCCCc1nn2c(=O)cc(COC(=O)c3ccccc3NC(=O)C(C)(C)C)nc2s1 | inactive: 10.3% |
| Cc1cc(NS(=O)(=O)c2ccc(NC(=O)COc3ccc(Br)cc3C)cc2)no1 | inactive: -3.77% |
| Cc1[nH]c(=O)[nH]c(=O)c1C1N2CC3(C(C)C)CN1CC(C(C)C)(C2)C3=O (stereo not given) | inactive: -0.983% |
| CCOC(=O)c1ccc(NC(=O)CN2C(=O)c3cccnc3Oc3ccc(Cl)cc32)cc1 | inactive: -0.265% |
| Cc1ccc(N2CCn3c2nc2c3c(=O)n(CCc3ccccc3)c(=O)n2C)cc1C | inactive: -5.04% |
| Cc1ccc(CNC(=O)Cn2nc(C)n3cccc3c2=O)cc1 | inactive: -8.87% |
| Cc1ccc(-n2ncc(C(=O)N3CCN(c4cccc(C)c4)C(C)C3)c2C2CCN(C(=O)OC(C)(C)C)CC2)cc1 (stereo not given) | inactive: -6.46% |
| CCOc1ccc(N2CC(c3nc4ccccc4n3Cc3cccc(Cl)c3)CC2=O)cc1 (stereo not given) | inactive: -0.927% |
| Cc1nn(CCCC(=O)NCc2ccc(F)cc2)c(=O)c2c1sc1ccccc12 | inactive: -0.381% |
| Cc1c2cnn(CC(=O)N3CCN(c4ccc(F)cc4)CC3)c(=O)c2c(C)n1Cc1ccc(F)cc1 | inactive: 2.63% |
| O=C(NCc1ccc(Cl)cc1)c1cc(S(=O)(=O)N2CCCCC2)c[nH]1 | inactive: -1.81% |
| CCOc1ccc2nc(NC(=O)c3cc(=O)c4ccc(C)cc4o3)sc2c1 | inactive: -1.51% |
| CCN1CCSc2ccc(C(=O)NC(C)c3ccccc3)cc21 (stereo not given) | inactive: -6.07% |
| CCOC(=O)c1cc(-c2ccccc2)n(-c2cccc(C(=O)Nc3ccc(F)c(F)c3)c2)c1C | inactive: -6.48% |
| COc1ccccc1CNC(=O)CCn1c(=O)c2ccccc2n(CC(=O)Nc2cccc(Cl)c2)c1=O | inactive: -25.5% |

| SMILES | activity change, negative = inhibition |
| --- | --- |
| Cc1c(NC(=O)c2cc(-c3ccc(Cl)c(Cl)c3)on2)c(=O)n(-c2ccccc2)n1C | inactive: -0.744% |
| CCOc1ccc(-c2cc(NC(=O)Nc3cccc(C(C)=O)c3)c(C(=O)OC)s2)cc1 | inactive: 2.01% |
| CCOc1ccc(S(=O)(=O)NCC(c2ccco2)S(=O)(=O)c2cccs2)cc1 (stereo not given) | inactive: 0.697% |
| CCOC(=O)c1ccc(NC(=O)CCCc2nc(-c3ccccc3Cl)no2)cc1 | inactive: 2.33% |
| COc1ccc(OC)c(NC(=O)C2CCCN(S(=O)(=O)c3c(C)nn(C)c3C)C2)c1 (stereo not given) | inactive: -6.56% |
| Cc1ccc(NC(=O)c2cnn3c(C(F)F)cc(-c4ccccc4)nc23)c(C)c1 | inactive: -0.23% |
| COc1ccc(N2CCN(C(=O)CCc3c(C)nn(-c4ccc(N5CCCC5)nn4)c3C)CC2)cc1 | inactive: -16% |
| Cc1ccc(NC(=O)Nc2nnc(N(CC(C)C)CC(C)C)s2)cc1Cl | inactive: 0.79% |
| COc1cccc(N2CCN(C(=O)C(CCSC)NS(=O)(=O)c3ccc4c(c3)oc(=O)n4C)CC2)c1 (stereo not given) | inactive: -0.482% |
| CCc1ccc(CNC(=O)Cc2ccc(NC(=O)N3CCSc4ncccc43)cc2)cc1 | inactive: -1.31% |
| CCOC(=O)CSc1nc2ccc(NC(=O)c3ccc(C)cc3)cc2s1 | inactive: -3.74% |
| O=C(O)c1ccc2c(c1)ncn2-c1ccc(F)c(F)c1 | inactive: -8.75% |
| COc1ccc(NC(=O)C2=C(C)Nc3ncnn3C2c2ccc(O)cc2)cc1 (stereo not given) | inactive: -13.5% |
| COc1ccc(OC)c(NC(=O)c2cc3c(=O)oc4ccccc4c3s2)c1 | inactive: 2.67% |
| Cc1cc2c(cc1S(=O)(=O)NCc1ccccc1Cl)OCCN2C | inactive: 0% |
| CCN(CC)c1nn2c(=O)c(C(=O)NCCc3ccccc3)cnc2s1 | inactive: 0.781% |
| Cc1ccc(C)c(NC(=O)c2ccc3c(O)c(S(=O)(=O)c4ccc(Cl)cc4)c(=O)[nH]c3c2)c1 | inactive: 4.32% |
| CCCCSCCCNC(=O)CN1C(=O)c2cccnc2Oc2ccc(Cl)cc21 | inactive: 0.515% |
| Fc1ccc(-c2noc3ncnc(N4CCN(c5ccccc5)CC4)c23)cc1 | inactive: 5.94% |
| COc1ccc(S(=O)(=O)N2CCN(c3ccccc3F)CC2)cc1-c1noc(C)n1 | inactive: 0.953% |
| O=C(NCc1ccc(F)cc1)c1ccc2c(Cl)c3c(nc2c1)CCCC3 | inactive: -6.39% |
| CCOC(=O)c1ccccc1NC(=O)C(=O)Nc1ccc2nc3n(c(=O)c2c1)CCCCC3 | inactive: -11% |
| CC(=O)N1CCOc2cc(S(=O)(=O)Nc3cccc(C(F)(F)F)c3)c(Cl)cc21 | inactive: 0% |
